Experimental data published in PubChem BioAssay AID686978 (National Center for Advancing Translational Sciences (NCATS), 2013).
Several values for one entry are separate records, joined by “and”; a condition that tells them apart may be missing. Equal values may be shown once. In all, about 420,000 compounds went through this assay and about 64,000 (15%) were called active. The inconclusive results got no clear call from the source; some entries with a clear call stand among them for comparison. Calls follow the shape of the dose curve; as a rule, active = well fitted inhibition curve with a large enough effect; inconclusive = small, poorly fitted or top-dose-only effect; inactive = flat fitted curve, though single readings scatter. No potency is given beside an inconclusive call; the fits are too rough.

Assay: qHTS for Inhibitors of human tyrosyl-DNA phosphodiesterase 1 (TDP1): qHTS in cells in absence of CPT; also: nearly all actives have a fitted effect of over 55% in size
Conditions: DT40 Tdp1-/- hTDP1 cells, no CPT, ATP luminescence, 48 h; activity change, negative = growth inhibition: at 46.2 µM (top of the series)
Procedure, shortened: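 Compound effects on proliferation are scored in DT40 Tdp1-/-;hTDP1 cells in the absence of CPT. ATP levels (CellTiter-Glo luminescence) are recorded after a ≥48 hr, 37 °C incubation.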
% is scaled to controls: 0 for no effect and ±100 for the full control effect; potency is read from the fitted curve at half-maximal effect; tags tell the direction and shape of the fitted curve.

Row | SMILES | Potency | activity change, negative = growth inhibition
1 | Cc1ccc(S(=O)(=O)N2CCOCC2)cc1NC(=O)CSc1ccc(Cl)cc1 | inconclusive [inhibitor, single point] | 
2 | CCOC(=O)C1CCN(S(=O)(=O)c2ccc(NC(=O)OC)cc2)CC1 |  | inactive: -10.9%
3 | CN(C)C(CNC(C(=O)Nc1ccc([N+](=O)[O-])cc1Br)c1ccccc1)c1ccccc1 (configuration not stated) | inconclusive [inhibitor, single point] | 
4 | Cc1cccc(C)c1-n1nnnc1C(C)(C)N1CCN(N=O)CC1 |  | inactive: -11%
5 | S=c1[nH]nc(-c2ccccn2)n1/N=C/c1ccccc1 |  | inactive: -8.22%
6 | Cn1nc(-c2ccccc2)c(COC(=O)c2cccc(Cl)c2)c1S(=O)(=O)c1ccccc1 | inconclusive [inhibitor, single point] | 
7 | Cc1csc2nc(O)c(C(=O)NC3CCCCCC3)c(=O)n12 | active: 5.17 µM | 
8 | O=C(O)C1CCN(c2nc(-c3ccccc3)nc3c2oc2ccccc23)CC1 | inconclusive [inhibitor, single point] | 
9 | CCOc1ccc2[nH]c3c(NCCc4ccc(OC)c(OC)c4)ncnc3c2c1 | active: 2.91 µM | 
10 | CCS(=O)(=O)NCCCCc1ccccc1 |  | inactive: -4.14%
11 | CCOC(=O)C(C)Sc1nc2ccccc2c(=O)n1CC1CCCCC1 (configuration not stated) | inconclusive [inhibitor, single point] | 
12 | COc1ccc(N2CCN(c3cc(C(=O)Nc4cc(OC)c(OC)c(OC)c4)ncn3)CC2)cc1OC | active: 18.4 µM | 
13 | O=C(Nc1cccc(Cl)c1Cl)c1csc([C@H]2C[C@H](O)[C@@H](CO)O2)n1 |  | inconclusive: -30.3% [inhibitor]
14 | CCOc1cc(C(=O)OCC(=O)c2c(N)n(C)c(=O)n(C)c2=O)cc(OCC)c1OCC | inconclusive [inhibitor, single point] | 
15 | COc1cc2ccccc2cc1C(=O)NC(=S)Nc1cc(C(=O)O)ccc1C | inconclusive [inhibitor, single point] | 
16 | COc1ccc(CNC(=O)CSc2nc(-c3ccccc3)cc(-c3cccs3)c2C#N)cc1 | inconclusive [inhibitor, partial curve] | 
17 | O=C(Nc1ccccc1O)c1ccc(Cl)cc1 | active: 23.1 µM | 
18 | CCCCN(CCCNC(=O)C1CCN(C(=O)c2cc3sccc3n2C)CC1)Cc1ccccc1 | inconclusive [inhibitor, partial curve] | 
19 | COC(=O)CSc1ncnc2c1cnn2Cc1ccccc1 |  | inactive: -19.4%
20 | CC1CC2(CCCCC2)Nc2ccc3ccccc3c21 (configuration not stated) | inconclusive [inhibitor, single point] | 
21 | Cc1cc2nc(SCCOC(=O)Nc3ccc(Cl)cc3)nc(C)c2cc1C | inconclusive [inhibitor, partial curve] | 
22 | CCCCNc1nc(Oc2ccc(=O)n(-c3ccccc3)n2)nc(N(CC)CC)n1 | inconclusive [inhibitor, partial curve, poor fit] | 
23 | CCOC(=O)/C=C1\CN(Cc2cc(OC)c(OC)c(OC)c2)S(=O)(=O)c2ccc(C(F)(F)F)cc21 | active: 6.31 µM and active: 11.6 µM | 
24 | CCn1cc(C(=O)NCc2ccc(Cl)cc2)c(=O)c2cc(S(=O)(=O)N3CCOCC3)ccc21 | active: 23.1 µM | 

Row | SMILES | Potency | activity change, negative = growth inhibition
25 | c1ccc(Cn2ncc3c(Nc4ccccc4)ncnc32)cc1 |  | inactive: -27.4%
26 | Cc1oc(-c2ccccc2NS(C)(=O)=O)nc1CN(C)Cc1ccc(Cl)cc1 | active: 20.6 µM | 
27 | Cc1cc(N/N=C/c2ccccc2O)nc(-c2ccccc2O)n1 | inconclusive [inhibitor, partial curve] | 
28 | CCC1=Nc2cc(C(=O)NCC3CCCO3)ccc2Sc2ccc(Cl)cc21 (configuration not stated) | active: 4.11 µM | 
29 | CCOc1ccc(CCNC(=O)CS(=O)Cc2nc(-c3ccc(OC)cc3)oc2C)cc1OCC (configuration not stated) | inconclusive [inhibitor, single point] | 
30 | Cc1cccnc1NC(=S)NCc1ccco1 |  | inactive: 1.63%
31 | Cc1ccc(-c2nnc(SCC(=O)N3CCCc4ccccc43)o2)cc1 | inconclusive [inhibitor, single point] | 
32 | COc1cccc(C(=O)NC2CCN(CC(=O)Nc3cccc(C)c3C)CC2)c1 | inconclusive [inhibitor, single point] | 
33 | O=C(Nc1cccc2ccccc12)c1cc2c(cc1Br)OCO2 | inconclusive [inhibitor, single point] | 
34 | Cc1cc(C)c2nc(C(F)(F)F)c(C#N)c(N)c2c1 | inconclusive [inhibitor, partial curve] | 
35 | O=C(Nc1cccnc1)C1(F)C(F)(F)C(F)(F)C(F)(F)C(F)(F)C1(F)F | inconclusive [inhibitor, single point] | 
36 | c1ccc(Cc2noc(CN3CCCN(C4Cc5ccccc5C4)CC3)n2)cc1 | inconclusive [inhibitor, single point] | 
37 | CC1CCN(C(=S)c2ccc(N(C)C)cc2)CC1 |  | inactive: -23.1%
38 | c1ccc(-c2cn(C[C@H]3CC[C@@H]([C@@H]4CC[C@H](Cn5cc(-c6ccccn6)nn5)O4)O3)nn2)nc1 |  | inactive: -23.5%
39 | O=[N+]([O-])c1ccccc1S(=O)(=O)NC1CCCCCCC1 | active: 16.4 µM | 
40 | CN(C)/C=N/C(=S)Nc1cc(Cl)cc(Cl)c1 |  | inactive: -19.2%
41 | CN(C)/C=N/c1nc2nccc(-c3ccccc3)n2n1 | inconclusive [inhibitor, single point] | 
42 | CCOC(=O)C(NC(=O)c1ccccc1)C(C)(C)SCc1ccccc1 (configuration not stated) | inconclusive [inhibitor, single point] | 
43 | O=C(CSc1nc2c(c(=O)n1-c1ccc(Br)cc1)SCC2)NCc1ccco1 | inconclusive [inhibitor, single point] | 
44 | Cc1ccc(-c2nnc(SCC(=O)N3CC(C)CC(C)C3)o2)cc1C (configuration not stated) | active: 20.6 µM | 
45 | N#CC1CC(c2ccccc2)Nc2cc(Cl)ccc2N1 (configuration not stated) | active: 10.3 µM | 
46 | CSCCC(NC(=O)c1ccccc1Cl)C(=O)NCC(c1ccc(F)cc1)N1CCOCC1 (configuration not stated) |  | inactive: -11%
47 | CSCCC(=O)N1CC[C@@H](N2CCN(c3ccccc3F)CC2)[C@H](O)C1 |  | inactive: 12.4%
